From patent US8158586B2, “Inhibitors of protein kinases and uses thereof” (priority 2005, dated 2012)
Where “and” joins values, the source holds several entries; their conditions need not be identical. Identical values can stand only once. Entries after “also recorded” stand apart in the source; their conditions may differ. At least one compound was matched to its structure with a doubt left. Some compounds share one wording; it may come from a single statement. Residues, ends and D or L forms follow the SMILES beside them. *: point of attachment. PNA(A) = NCCN(CC(=O)*)C(=O)Cn1cnc2c(N)ncnc21

Key:
[1] = tested on: human neuroblastoma cell line IMR-32; test: Inhibition of IMR-32 cell proliferation (pinocytic loading, Hoechst total DNA); format: cell-based
[2] = tested on: Bcl-2; test: Bcl2 sublocalization, immunolabelling; format: cell-based
[3] = tested on: DU-145 prostate cancer cell line; test: Cell death at 24 h after pinocytic loading, Du145; format: cell-based
[4] = tested on: STAT-3; test: STAT-3 phosphorylation (Ser727, Tyr 705) in IL-6 treated U-251 cells, immunocytochemistry; format: cell-based, human; conditions: 5 mM loading
[5] = tested on: pERK1/2; test: pERK1/2 in serum-stimulated IMR-32 neuroblastoma cells, immunofluorescence (indirect MEK1/2); format: cell-based, human; conditions: 5 mM loading, control stimulated 105.3, control starved 59.5
[6] = tested on: H-661 non-small cell lung cancer cell line; test: Cell death at 24 h after pinocytic loading, H661; format: cell-based
[7] = tested on: T-24 bladder cancer cell line; test: Cell death at 24 h after pinocytic loading, T24; format: cell-based
[8] = tested on: LNCap prostate cancer cell line; test: Cell death at 24 h after pinocytic loading, LnCAP; format: cell-based
[9] = tested on: PKC-alpha; test: In vitro inhibition of PKC-alpha in IMR-32 cell lysate (IQ PKC assay kit); format: biochemical, human; conditions: IMR-32 cell lysate as enzyme source; various doses
[10] = tested on: MRP-1 expression in H-661 NSCLC cells; test: MRP-1 expression in H-661 NSCLC cells, flow cytometry; format: cell-based
[11] = tested on: MDA-MB-231 breast cancer cell line; test: Cell death at 24 h after pinocytic loading, MDA-MB-231; format: cell-based
[12] = tested on: U-251 glioblastoma cell line; test: Cell death at 24 h after pinocytic loading, U251; format: cell-based, human
[13] = tested on: IMR-32 neuroblastoma cell line; test: Cell death at 24 h after pinocytic loading, IMR32; format: cell-based, human
[14] = tested on: MRP-1 expression in LS180 colon cancer cells; test: MRP-1 expression in LS180 colon cancer cells, flow cytometry; format: cell-based; conditions: compound 5 μM
[15] = tested on: Pgp expression in H-661 NSCLC cells; test: Pgp expression in H-661 NSCLC cells, flow cytometry; format: cell-based
[16] = target: T1, PKC-alpha (Homo sapiens, UniProt P17252); test: In vitro inhibition of purified PKC-alpha (IQ PKC assay kit); format: biochemical; conditions: 10 μg per assay
T1 construct: purchased Upstate Cell Signalling Solutions 14-484

[17] = tested on: Pgp expression in LS180 colon cancer cells; test: Pgp expression in LS180 colon cancer cells, flow cytometry; format: cell-based; conditions: compound 5 μM

CC(=O)N[C@@H](Cc1ccccc1)C(=O)N[C@@H](CCCNC(=N)N)C(=O)N[C@@H](CCCNC(=N)N)C(=O)N[C@@H](CCCCNC(=O)CN(CCN)C(=O)Cn1cnc2c(N)ncnc21)C(=O)N[C@@H](Cc1ccccc1)C(=O)N[C@@H](CCCNC(=N)N)C(=O)N[C@@H](CC(C)C)C(=O)O [Compound 3] (Ac-FRRK(PNA(A))FRL-OH; N-terminus and C-terminus assumed)
% inhibition ([1]; 24 h, 1.0 mg/ml): 54%
Average cell no. ([1]; 24 h, 1.0 mg/ml in loading medium): 340
% inhibition ([1]; 24 h, 2.5 mg/ml): 36%
Average cell no. ([1]; 24 h, 2.5 mg/ml in loading medium): 475
% inhibition ([1]; 24 h, 5.0 mg/ml): 12%
Average cell no. ([1]; 24 h, 5.0 mg/ml in loading medium): 654
% inhibition ([1]; 24 h, 10.0 mg/ml): 8%
Average cell no. ([1]; 24 h, 10.0 mg/ml in loading medium): 683
% inhibition ([1]; 48 h, 1.0 mg/ml): 58%
Average cell no. ([1]; 48 h, 1.0 mg/ml in loading medium): 311
% inhibition ([1]; 48 h, 2.5 mg/ml): 39%
Average cell no. ([1]; 48 h, 2.5 mg/ml in loading medium): 452
% inhibition ([1]; 48 h, 5.0 mg/ml): 22%
Average cell no. ([1]; 48 h, 5.0 mg/ml in loading medium): 578
% inhibition ([1]; 48 h, 10.0 mg/ml): 17%
Average cell no. ([1]; 48 h, 10.0 mg/ml in loading medium): 612
% inhibition ([1]; 72 h, 1.0 mg/ml): 77%
Average cell no. ([1]; 72 h, 1.0 mg/ml in loading medium): 379
% inhibition ([1]; 72 h, 2.5 mg/ml): 42%
Average cell no. ([1]; 72 h, 2.5 mg/ml in loading medium): 949
% inhibition ([1]; 72 h, 5.0 mg/ml): 36%
Average cell no. ([1]; 72 h, 5.0 mg/ml in loading medium): 1042
% inhibition ([1]; 72 h, 10.0 mg/ml): 6%
Average cell no. ([1]; 72 h, 10.0 mg/ml in loading medium): 1540
Bcl2 label intensity, Perinuclear ([2]; control 0): 1
Bcl2 label intensity, Cytoplasmic ([2]; control 1): 1
Bcl2 label intensity, Nuclear ([2]; control 2): 2.5
Percentage Cell Death at 24 h, Du145 ([3]; 5 mM): 29%
Percentage Cell Death at 24 h, Du145 ([3]; 10 mM): 32%
Anti-Serine Antibody FL Density ([4]; pSTAT3 Ser727, control 70.15): 90.2
Anti-Tyrosine Antibody FL Density ([4]; pSTAT3 Tyr 705, control 43): 46.56
pERK1/2 FL Density [5]: 99.6
Percentage Cell Death at 24 h, H661 ([6]; 5 mM): 1%
Percentage Cell Death at 24 h, H661 ([6]; 10 mM): 19%
Percentage Cell Death at 24 h, T24 ([7]; 5 mM): 1%
Percentage Cell Death at 24 h, T24 ([7]; 10 mM): 22%
Percentage Cell Death at 24 h, LnCAP ([8]; 5 mM): 3%
Percentage Cell Death at 24 h, LnCAP ([8]; 10 mM): 22%
inhibition of PKC-alpha in cell lysate [9]: good activity at 1 μg; also recorded: reverse dose response
Cells expressing MRP-1, +Doxorubicin (A) ([10]; compound 0.5 μM): 49.95%
Cells expressing MRP-1, No Doxorubicin (B) ([10]; compound 0.5 μM): 5.24%
MRP-1 Ratio A/B ([10]; compound 0.5 μM): 9.5
Cells expressing MRP-1, +Doxorubicin (A) ([10]; compound 1 μM): 66.37%
Cells expressing MRP-1, No Doxorubicin (B) ([10]; compound 1 μM): 3.82%
MRP-1 Ratio A/B ([10]; compound 1 μM): 17.4
MRP-1 expression ([10]; without doxorubicin): decreased MRP-1 expression
Percentage Cell Death at 24 h, MDA-MB-231 ([11]; 5 mM): 1%
Percentage Cell Death at 24 h, MDA-MB-231 ([11]; 10 mM): 21%
Percentage Cell Death at 24 h, U251 ([12]; 5 mM): 7%
Percentage Cell Death at 24 h, U251 ([12]; 10 mM): 14%
Percentage Cell Death at 24 h, IMR32 ([13]; 5 mM): 19%
Percentage Cell Death at 24 h, IMR32 ([13]; 10 mM): 21%
Cells expressing MRP-1, +Doxorubicin (A) [14]: 25.24% and 22.57%
Cells expressing MRP-1, No Doxorubicin (B) [14]: 3.57% and 8.12%
Cells expressing Pgp, +Doxorubicin (A) ([15]; compound 0.5 μM): 47.66%
Cells expressing Pgp, No Doxorubicin (B) ([15]; compound 0.5 μM): 2.04%
Pgp Ratio A/B ([15]; compound 0.5 μM): 23.4
Cells expressing Pgp, +Doxorubicin (A) ([15]; compound 1 μM): 56.85%
Cells expressing Pgp, No Doxorubicin (B) ([15]; compound 1 μM): 2.65%
Pgp Ratio A/B ([15]; compound 1 μM): 21.5
inhibition of purified PKC-alpha activity [16]: showed inhibitory activity; also recorded: drastically inhibits
Cells expressing Pgp, +Doxorubicin (A) [17]: 19.47% and 10.86%
Cells expressing Pgp, No Doxorubicin (B) [17]: 8.85% and 2.61%
Pgp Ratio A/B [17]: 2.20 and 4.16
